In PubChem BioAssay AID504332 (National Center for Advancing Translational Sciences (NCATS), 2011):
“And” between values parts separate entries of the source, which are not always exact repeats. Equal values may be shown once. About 31,000 (8.9%) of roughly 350,000 compounds were called active. Inconclusive results, whose numbers are uncertain, are shown with a selection of clear calls. The call rests on the fitted dose curve; in most records, active means well fitted inhibition curve with a large enough effect; inconclusive means small, poorly fitted or top-dose-only effect; inactive means no such curve, though single readings can be large or run the other way. A potency beside an inconclusive call is a rough fit, not a confirmed value.

These molecules were tested against Histone-lysine N-methyltransferase EHMT2 (Homo sapiens) (UniProt Q96KQ7) (assay: qHTS Assay for Inhibitors of Histone Lysine Methyltransferase G9a). Details: G9a H3K9 monomethylation, AlphaScreen, 2 h; activity, negative = inhibition: at 59 µM (top of the series) unless noted.
Method in brief: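 Signal arises when biotinylated H3K9 peptide, once monomethylated, bridges streptavidin donor and antibody-captured acceptor beads. Enzyme at 20 nM was preincubated 15 min with test compounds; peptide 500 nM and SAM 20 uM then reacted for 2 h.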
Further: nearly all actives have a fitted effect of over 75% in size.
On the % scale 0 is the no-effect control and ±100 the full control effect; potency means the concentration at half of the fitted maximal effect; tags describe the fitted curve by direction and shape.

Chain of UniProt Q96KQ7 (Q96KQ7 whole entry, looked up): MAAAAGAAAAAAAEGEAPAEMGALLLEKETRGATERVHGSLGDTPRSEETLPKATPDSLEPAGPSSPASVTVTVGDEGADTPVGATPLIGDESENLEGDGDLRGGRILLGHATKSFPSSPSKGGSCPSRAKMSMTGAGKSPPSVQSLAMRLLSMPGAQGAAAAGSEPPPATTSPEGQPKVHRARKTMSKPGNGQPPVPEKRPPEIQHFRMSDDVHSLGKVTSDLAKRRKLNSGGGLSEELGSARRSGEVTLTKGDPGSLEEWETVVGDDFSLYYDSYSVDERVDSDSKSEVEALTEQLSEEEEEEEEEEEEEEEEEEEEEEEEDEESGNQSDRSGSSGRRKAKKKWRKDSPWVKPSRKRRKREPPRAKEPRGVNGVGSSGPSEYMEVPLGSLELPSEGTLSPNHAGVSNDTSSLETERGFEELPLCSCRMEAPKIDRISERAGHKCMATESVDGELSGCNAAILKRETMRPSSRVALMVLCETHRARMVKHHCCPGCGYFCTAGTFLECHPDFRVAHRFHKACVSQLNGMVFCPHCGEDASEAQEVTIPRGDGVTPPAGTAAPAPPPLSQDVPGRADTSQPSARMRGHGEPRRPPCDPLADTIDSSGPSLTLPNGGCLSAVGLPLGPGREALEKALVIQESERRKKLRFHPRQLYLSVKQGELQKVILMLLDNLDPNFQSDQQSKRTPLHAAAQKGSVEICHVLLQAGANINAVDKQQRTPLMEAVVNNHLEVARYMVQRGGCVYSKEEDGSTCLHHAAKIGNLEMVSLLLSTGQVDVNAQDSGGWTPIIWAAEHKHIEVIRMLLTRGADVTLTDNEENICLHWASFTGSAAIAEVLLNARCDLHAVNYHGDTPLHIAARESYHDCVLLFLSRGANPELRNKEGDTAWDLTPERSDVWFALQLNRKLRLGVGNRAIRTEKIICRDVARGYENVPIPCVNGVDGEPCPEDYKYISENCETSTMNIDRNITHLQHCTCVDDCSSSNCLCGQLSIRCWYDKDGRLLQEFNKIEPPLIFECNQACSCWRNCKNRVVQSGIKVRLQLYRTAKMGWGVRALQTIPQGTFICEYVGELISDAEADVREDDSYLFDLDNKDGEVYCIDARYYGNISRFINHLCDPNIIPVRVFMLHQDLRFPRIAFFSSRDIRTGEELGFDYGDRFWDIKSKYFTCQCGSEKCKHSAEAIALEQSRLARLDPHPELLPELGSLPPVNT

Row | SMILES | Potency | activity, negative = inhibition
1 | CCOc1cc(C(=S)N2CCOCC2)ccc1OC(=O)/C=C/c1ccc(OC)c(OC)c1 | inconclusive: 15.8 µM [inhibitor, partial curve, poor fit] | –
2 | O=C(/C=C/c1cccc(Oc2ccccc2)c1)N1CCOCC1 | – | inactive: -19.2% [at 102 µM]
3 | COc1cc(NC(=O)C2CCCCN2)ccc1OCC(C)C (stereo unspecified) | – | inconclusive: -95.4% [inhibitor]
4 | CC1(c2ccccc2Cl)NC(=O)N(CC(=O)N2CCN(S(=O)(=O)c3ccccc3)CC2)C1=O (stereo unspecified) | inconclusive: 56.2 µM [inhibitor, partial curve, poor fit] | –
5 | O=C(CCC1CCCN(C(=O)C2=CCCC2)C1)N1CCN(c2ccccn2)CC1 (stereo unspecified) | – | inactive: -62.8% [at 102 µM]
6 | C/C(=N\NC(=O)C1COc2ccccc2O1)c1ccc(C)o1 (stereo unspecified) | – | inactive: -15.8% [at 102 µM]
7 | O=C(C1CC1)N1CCc2cc(Br)cc(S(=O)(=O)NC3CCCCC3)c21 | inconclusive: 44.7 µM [inhibitor, partial curve] | –
8 | O=C(c1ccccc1)C1CCN(C(=O)c2ccco2)CC1 | inconclusive: 89.1 µM [inhibitor, single point] | –
9 | Cc1cccc(NC(=O)CSCC(=O)Nc2cc(S(=O)(=O)N3CCOCC3)ccc2OC(C)C)c1 | – | inactive: -50.4% [at 102 µM]
10 | Cc1cccc(N2CCN(C(=O)c3ccc(CS(=O)c4cccc(Cl)c4)o3)CC2)c1C (stereo unspecified) | inconclusive: 10 µM [inhibitor, partial curve, poor fit] | –
11 | CN1/C(=C\C(=O)Nc2ccc(Cl)cc2)C(C)(C)c2ccccc21 | inconclusive: 79.4 µM [inhibitor, single point] | –
12 | CN(C)c1cc2c(cc1NS(=O)(=O)c1ccccc1)n(C)c(=O)n2C | active: 12.6 µM and active: 35.5 µM | –
13 | Cn1c(Cc2cccc3ccccc23)nnc1SCC(=O)N1CCN(c2ccccc2)CC1 | – | inconclusive: -68.1% [inhibitor]
14 | COc1cccc(CSc2nc3n(n2)C(c2cccc(F)c2)C(C(=O)Nc2ccccc2C)=C(C)N3)c1 (stereo unspecified) | – | inactive: -4.67%
15 | COC(=O)CSc1nnc(-c2ccoc2C)n1-c1ccc(OC)cc1 | inconclusive: 12.6 µM [inhibitor, partial curve, poor fit] | –
16 | COc1ccc(CNC(=O)CCCn2nc(C)c([N+](=O)[O-])c2C)cc1OC | inconclusive: 44.7 µM [inhibitor, partial curve, poor fit] | –
17 | COc1ccc(-c2n[nH]c(=S)n2Cc2ccco2)cc1 | inconclusive: 0.891 µM [inhibitor, full curve, poor fit] | –
18 | COc1ccc(Cl)cc1NC(=O)CCS(=O)(=O)c1cccc2nonc12 | – | inactive: -23.3%
19 | COc1cc(NC(=S)NC(=O)c2ccccc2C)ccc1NC(=O)c1cccs1 | – | inconclusive: -62.4% [inhibitor] [at 12.7 µM]
20 | O=C(COC(=O)CCC(=O)c1cccs1)Nc1ccc(Cl)cn1 | inconclusive: 25.1 µM [inhibitor, single point] | –
21 | CCCCn1c(=O)c(-[n+]2ccccc2)c([O-])c2ccccc21 | active: 8.91 µM | –
22 | O=c1c(-c2nnc(SCc3ccc(Cl)cc3Cl)o2)cccn1Cc1ccccc1 | – | inactive: 89.9% [at 102 µM]

Row | SMILES | Potency | activity, negative = inhibition
23 | Cc1ccc(C)c(/C(O)=C2/C(=O)C(=O)N(CCN3CCOCC3)C2c2ccco2)c1 (stereo unspecified) | inconclusive: 6.31 µM [inhibitor, single point] | –
24 | N#C/C(=N\Nc1ccc(F)cc1)C(=N)N1CCCCC1 | inconclusive: 22.4 µM [inhibitor, partial curve, poor fit] | –
25 | Cc1cc(OCC(=O)N(C)C2CCCCC2)cc(C)c1Cl | – | inactive: 6.27%
26 | COc1ccc(C(=O)NC(=S)Nc2ccc(S(=O)(=O)Nc3cc(OC)nc(OC)n3)cc2)cc1 | inconclusive: 100 µM [inhibitor, single point] | –
27 | CCN(CC(=O)Nc1cc(Cl)ccc1C)C(=O)CSCc1ccc(C)cc1 | – | inactive: -2.36% [at 2.33 µM]
28 | OC(COc1ccc2c(c1)OCO2)CN1CCN(c2ccccc2)CC1 (stereo unspecified) | active: 50.1 µM | –
29 | COc1ccc(C(=O)c2ccc(CC#N)s2)cc1 | inconclusive: 39.8 µM [inhibitor, single point] | –
30 | COc1ccccc1OCC(=O)NNC(=S)NC(=O)c1ccco1 | inconclusive: 2.51 µM [inhibitor, partial curve, poor fit] | –
31 | CCSc1nnc2c(n1)OC(c1ccc(C)cc1)N(C(C)=O)c1ccccc1-2 (stereo unspecified) | inconclusive: 7.94 µM [inhibitor, partial curve, poor fit] | –
32 | C#CCOCCOCCOCCNc1nc(N2CCN(C(=O)[C@H]([C@@H](C)CC)n3cc([C@@H](N)Cc4ccc(O)cc4)nn3)CC2)nc(N2CCN(C(=O)[C@H](Cc3ccc(O)cc3)n3cc([C@@H](N)C(C)CC)nn3)CC2)n1 (stereo partly specified) | – | inconclusive: -60.8% [inhibitor]
33 | COC(=O)C1=C(C)NC(=O)NC1c1ccc(-c2ccc(Cl)cc2)o1 (stereo unspecified) | inconclusive: 56.2 µM [inhibitor, partial curve] | –
34 | COc1ccc(C(=O)Nc2nc3c(s2)CCCC3)cc1S(=O)(=O)N1CCCc2ccccc21 | inconclusive: 79.4 µM [inhibitor, single point] | –
35 | O=C(C[n+]1ccc(C(=O)N/N=C/c2ccc(OCc3ccccc3)cc2)cc1)c1ccccc1 | inconclusive: 3.98 µM [inhibitor, partial curve, poor fit] | –
36 | CSC1=C(C#N)C2(CCCC2)C(C#N)=C(N)N1 | inconclusive: 39.8 µM [inhibitor, single point] | –
37 | COc1ccc(-n2c(SCC(=O)Nc3ccccc3C)nc(O)c(Cc3ccccc3)c2=O)cc1 | – | inactive: 5.51% [at 0.501 µM]
38 | COc1ccc(OC)c2[nH]c(C(=O)O)cc12 | inconclusive: 14.1 µM [inhibitor, partial curve, poor fit] | –
39 | O=C(COc1ccccc1)NC1CCN(Cc2ccccc2)CC1 | inconclusive: 6.31 µM [inhibitor, single point] | –
40 | O=C(NCCCN1CCCC1=O)c1ccc2c(=O)n(-c3ccc(F)cc3)c(=S)[nH]c2c1 | active: 31.6 µM | –
41 | Nc1nc(-c2ccc(Cl)cc2)cc(C(F)(F)F)n1 | inconclusive: 89.1 µM [inhibitor, single point] | –
42 | Cc1nc2c(-c3ccccc3)c(C)[nH]n2c(=O)c1Cc1ccccc1 | – | inactive: 48.7% [at 102 µM]
43 | Cc1ccc(NC(=O)C(=O)NCC(c2cccnc2)N2CCOCC2)cc1Cl (stereo unspecified) | inconclusive: 8.91 µM [inhibitor, partial curve, poor fit] | –
44 | COc1ccc(C)cc1NC(=O)CCc1c(C)nn(-c2ccc(N3CCOCC3)nn2)c1C | – | inactive: -3.72%

Row | SMILES | Potency | activity, negative = inhibition
45 | O=C(Cc1ccc(Cl)cc1)Nc1nnc2n1CCS2 | inconclusive: 3.98 µM [inhibitor, partial curve, poor fit] | –
46 | CC12CCC(C(=O)NNc3ccc([N+](=O)[O-])cc3)(OC1=O)C2(C)C (stereo unspecified) | – | inactive: 3.84% [at 102 µM]
47 | O=C(N/N=C/c1ccc(O)cc1)c1cccc(N/N=C/c2ccc(O)cc2)c1 | active: 10 µM | –
48 | O=C(COC(=O)c1ccc(Cl)nc1)Nc1nnc(-c2ccccc2)o1 | – | inactive: -7.27% [at 102 µM]
49 | COc1ccc(C(=O)Nc2ccnn2C2CCN(Cc3ccc4nonc4c3)CC2)cc1 | inconclusive: 79.4 µM [inhibitor, single point] | –
50 | COc1ccc(-c2nnc3n2-c2ccccc2SC3)cc1OC | inconclusive: 39.8 µM [inhibitor, single point] | –
51 | CCN(CC)CCCN(Cc1cc2cc3c(cc2[nH]c1=O)OCCO3)C(=O)Nc1ccc(F)cc1 | inconclusive: 70.8 µM [inhibitor, single point] | –
52 | O=C1NC(=S)N/C1=C/c1cccc([N+](=O)[O-])c1O | – | inactive: -3% [at 2.33 µM]
53 | O=C(NCc1cccnc1)Nc1ccc(Br)cc1 | – | inactive: 17.4% [at 102 µM]
54 | CCN1CCN(CC(=O)Nc2cc(F)ccc2C)CC1 | – | inactive: -12.9% [at 102 µM]
55 | O=[N+]([O-])c1cc(Cl)ccc1N1CCN(c2ccccc2O)CC1 | inconclusive: 20 µM [inhibitor, partial curve, poor fit] | –
56 | CC1(c2ccc3ccccc3c2)NC(=O)N(CC(=O)Nc2cccc(S(=O)(=O)N3CCOCC3)c2)C1=O (stereo unspecified) | inconclusive: 100 µM [inhibitor, single point] | –
57 | Cc1cc(C)c(NS(=O)(=O)c2ccc(-c3cnc(C4CC4)o3)cc2)c(C)c1 | inconclusive: 10 µM [inhibitor, partial curve, poor fit] | –
58 | CCOC(=O)c1cc(C#N)c(N2CCN(C)CC2)nc1-c1ccccc1 | inconclusive: 44.7 µM [inhibitor, partial curve] | –
59 | CCN1CCN(c2ccc(NC(=O)c3cccc(OCc4ccccc4)c3)cc2)CC1 | inconclusive: 12.6 µM [inhibitor, partial curve, poor fit] | –
60 | COc1cccc(CNC(=O)Cc2csc3ccccc23)c1OC | – | inactive: -4.92%
61 | CC(=O)c1cccc(OCC(=O)N(Cc2ccco2)c2c(N)n(Cc3ccccc3)c(=O)[nH]c2=O)c1 | inconclusive: 0.316 µM [inhibitor, full curve, poor fit] | –
62 | CCN1CCN(C2=C(NS(=O)(=O)c3ccc(NC(C)=O)cc3)C(=O)c3ccccc3C2=O)CC1 | inconclusive: 79.4 µM [inhibitor, single point] | –
63 | CC(C)N(CCc1ccncc1)C(=S)Nc1ccc(F)c(Cl)c1 | inconclusive: 50.1 µM [inhibitor, partial curve, poor fit] | –
64 | N#CC(C#N)=c1ccc2c(c1)N1C(c3ccccc3)=CC(c3ccccc3)C3CCCCC31N=2 (stereo unspecified) | – | inconclusive: -62.4% [inhibitor]
65 | O=C(O)c1ccc(Br)cn1 | active: 22.4 µM | –
66 | O=C(C1CC1)N1CCc2[nH]c3ccccc3c2C1 | inconclusive: 39.8 µM [inhibitor, single point] | –
